Reference: patent US20260201045A1

Experiments:
[1] = molecular target: full length cynomolgus monkey CNTFR (mfCNTFR, amino acids 1-372, NCBI Reference Sequence Accession #XP_005581519.1) (cynomolgus monkey); experiment: flow cytometry on HEK293/mfCNTFR cells
[2] = molecular target: mouse CNTFR extracellular domain expressed with a C-terminal myc-myc-hexahistidine tag (mouse) (UniProt O88507); experiment: SPR Biacore 4000, mAb captured by anti-human Fc, antigen injected, 25 C
[3] = molecular target: mouse CNTFR extracellular domain expressed with a C-terminal myc-myc-hexahistidine tag (mouse) (UniProt O88507); experiment: SPR Biacore 4000, mAb captured by anti-human Fc, antigen injected, 37 C

Sequence of UniProt O88507 (O88507 other isoform, or with tags, fused parts or gaps limits assumed): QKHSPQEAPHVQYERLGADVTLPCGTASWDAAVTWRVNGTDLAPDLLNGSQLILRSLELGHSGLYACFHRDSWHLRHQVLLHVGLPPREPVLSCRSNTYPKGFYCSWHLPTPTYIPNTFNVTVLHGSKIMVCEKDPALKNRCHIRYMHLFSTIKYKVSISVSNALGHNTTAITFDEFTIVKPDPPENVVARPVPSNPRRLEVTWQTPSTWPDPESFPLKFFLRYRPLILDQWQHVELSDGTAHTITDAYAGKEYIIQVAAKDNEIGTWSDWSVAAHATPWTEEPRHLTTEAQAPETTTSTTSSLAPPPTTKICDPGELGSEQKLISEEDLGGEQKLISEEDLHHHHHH

B1: REGN8938 (antibody, human IgG4 S228P, kappa, V domains shown)
VH: QVQLVESGGDVVQPGRSLRLSCAASGFTFSYYGMHWVRQPPGKGLEWVTIISFDGSQKYYADSVKGRFTISRDNSKNTVFLQMNSLRTEDTGFYYCAAQSSTWPEYFQYWGQGTLVTVSS
VL: [about 100 residues skipped]
- EC50 [1]: 1.4 nM
- Max. Fold Binding (fold over secondary antibody alone) [1]: 521
- Ag Bound at 100 nM (RU) [2]: 0 RU
- Ag Bound at 100 nM (RU) [3]: 0 RU
